The RNAGym collection of RNA variant scans (doi:10.1093/nar/gkz1192)
The source gives no read counts; variants with many changes may rest on few reads.

B1: CPEB3 Ribozyme (parent)
chain: UAACAGGGGGCCACAGCAGAAGCGUUCACGUCGCAGCCCCUGUCAGAUUCUGGUGAAUCUGCGAAUUCUGCUGUAUAUCUC

Variants of: B1
Assay: self-cleavage, relative activity (ratio to wild type); higher = more cleavage; in vitro, sequencing
Outline: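 Relative activity was defined as the cleaved/total read fraction for a variant divided by the same fraction for the unmutated ribozyme. CPEB3 self-cleaving ribozyme libraries were made by rounds of error-prone PCR, barcoded, and transcribed in vitro with T7 RNA polymerase for 5 hours at 37°C, and cleavage ran through transcription plus a 15 min DNase I step before EDTA. Illumina sequencing of template-switched reverse transcripts gave the reads, and DNA sequencing mapped the barcodes. Averages come from three batches, using variants with at least 5 reads.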

Variant | self-cleavage
A13G U26A U54C G61C A64G U80C | 0.12
A13G U26A U58C | 0.24
A13G U26A U76C | 0.61
A13G U26C A28C U60A U66A U80C | 0.11
A13G U26C A28G U51C | 0.31
A13G U26C A28G U54A U78G | 0.05
A13G U26C A35U U54A U66A | 0.06
A13G U26C A45U U69A | 0.22
A13G U26C A47G A64G | 0.14
A13G U26C A47G A75G | 0.2
A13G U26C A57G U67C | 0.07
A13G U26C A65G U76C | 0.09
A13G U26C A75G | 0.36
A13G U26C C29A U69C U74A A77G | 0.03
A13G U26C C32A G53A | 0.07
A13G U26C C34A U51C | 0.07
A13G U26C C38A U51C U69C | 0.06
A13G U26C C39U A65G | 0.15
A13G U26C C62U U72C | 0.09
A13G U26C G33U A64G | 0.14
A13G U26C G55A | 0.18
A13G U26C U31A C81U | 0.12
A13G U26C U43C A64G U69A | 0.05
A13G U26C U49C A56C | 0.05

Variant | self-cleavage
A13G U26C U49C A65U | 0.07
A13G U26C U58C U60C | 0.27
A13G U26C U60A A65G U69A | 0.05
A13G U26C U72A U78C | 0.22
A13G U26C U74C A75G | 0.38
A13G U26C U78C | 0.22
A13G U26G U69C | 0.07
A13G U26G U72A | 0.15
A13G U31A A35G A75G U78C | 0.92
A13G U31A A47G C62G A65G | 0.07
A13G U31A A64G U66C U78G | 0.05
A13G U31A C40A | 0.28
A13G U31A C40U U43C | 0.2
A13G U31A U41C U48A A65G | 0.28
A13G U31A U43C U49C A75G U80C | 0.33
A13G U31A U49A U76C | 0.42
A13G U31A U54G U66C U78A | 0.37
A13G U31A U60G A75G | 0.15
A13G U31A U69C | 0.16
A13G U31A U69C U72C | 0.18
A13G U31A U78C | 0.37
A13G U31C A35C U41C U78C | 0.28
A13G U31C A35G U54C U66C | 1.04
A13G U31C A64G | 0.31

Variant | self-cleavage
A13G U31C A64G U69G | 0.19
A13G U31C C32G G63A | 0.14
A13G U31C C38U A56U U74C | 0.32
A13G U31C G42A U66C | 0.16
A13G U31C G46A | 0.24
A13G U31C U41C C59U U60C | 0.19
A13G U31C U41C U58C | 0.14
A13G U31C U48C | 0.27
A13G U31C U54C U60A U72C U74C | 0.26
A13G U31C U60C G63A U76C U80C | 0.12
A13G U31C U69C G70A U80C | 0.08
A13G U31C U72A U80C | 0.52
A13G U31C U72C U74C | 0.59
A13G U31C U78A | 0.61
A13G U31G G33U A35G U43C U69C | 0.3
A13G U31G U51A U72C | 0.54
A13G U41A A45G | 0.25
A13G U41A A56G U72C U74A | 0.49
A13G U41A A65U | 0.17
A13G U41A G55U U58C | 0.16
A13G U41A G55U U58C U74A | 0.24
A13G U41A U48G A57G U69C | 0.04
A13G U41A U54C A57G | 0.32
A13G U41A U60A | 0.21

Variant | self-cleavage
A13G U41A U72C U78C U80A | 0.07
A13G U41C A45G G52C | 0.29
A13G U41C A47G U66A | 0.31
A13G U41C A65U U69C U80A | 0.22
A13G U41C A77G | 0.89
A13G U41C U43A U74A | 0.54
A13G U41C U48C | 0.4
A13G U41C U66C | 0.28
A13G U41C U69C U76A U80A | 0.26
A13G U41C U72A | 0.16
A13G U41C U74A | 1.09
A13G U41C U80A | 1.08
A13G U41G A56G U67A U80A | 0.13
A13G U43A A47G U54C A57G U78C C81U | 0.1
A13G U43A A56G U80C | 0.89
A13G U43A C62U A75G U80A | 0.12
A13G U43A U51C U69A | 0.47
A13G U43A U60C | 0.29
A13G U43C U58A | 0.09
A13G U43C U66A | 0.13
A13G U43C U69C | 0.09
A13G U48C A57G U66G U72C | 0.14
A13G U48C A65G U80A | 0.14
A13G U48C A77G | 0.3

Variant | self-cleavage
A13G U48C U51C G63C | 0.35
A13G U48C U58C U80A | 0.16
A13G U48C U60A U74C | 0.19
A13G U48C U69C U72C | 0.13
A13G U48C U72G | 0.57
A13G U49A A56G U69C | 0.08
A13G U49A U66C | 0.09
A13G U49A U67A U80C | 0.36
A13G U49C A56G U69C | 0.6
A13G U49C A57U U78C | 0.82
A13G U51A A56U | 0.47
A13G U51A A56U U67C | 0.28
A13G U51A A64G | 0.94
A13G U51A U69C | 0.29
A13G U51A U72C | 0.38
A13G U51C A57G U60A A64G U72C | 0
A13G U51C A57G U67C U69C U80C | 0.31
A13G U51C A65G U72A | 0.36
A13G U51C G61A | 0.17
A13G U51C U74C | 0.81
A13G U51G U67A U69C | 0
A13G U54A U60C U69A U72G | 0.13
A13G U54A U72C | 0.96
A13G U54C A64G | 0.66

Variant | self-cleavage
A13G U54C C71U | 0.32
A13G U54C C79A | 1.24
A13G U54C U66C | 0.44
A13G U54C U67C | 0.14
A13G U54C U76C | 1.07
A13G U54G A75G | 0.52
A13G U58A C68G | 0.19
A13G U58A U72A U74C | 0.11
A13G U58C C62G U80C | 0.14
A13G U58C U60C A77C | 0.12
A13G U58C U60C U72A | 0.1
A13G U58C U69A | 0.13
A13G U60A A64U C68G A75G U78C | 0.17
A13G U60A C71G | 0.09
A13G U60C A65G | 0.17
A13G U60C U69C | 0.24
A13G U60C U80C | 0.46
A13G U66C U74C | 0.17
A13G U66C U78C | 0.26
A13G U67C U69C | 0.12
A13G U69A G73A | 0.55
A13G U69A U72C | 0.23
A13G U69C G73C | 0.32
A13G U69C U76C | 0.35

Variant | self-cleavage
A13G U72A U78C | 0.59
A13U A15C C39U A45C U69C | 0.08
A13U A15C G24C U31A A45G | 0.2
A13U A15C U58A U60C A77U | 0.11
A13U A15G A18G U31A U58C C62A C81U | 0.13
A13U A15G A18U | 0.23
A13U A15G A20U U31G U54C U58C U67A | 0.14
A13U A15G A21G | 0.48
A13U A15G A21G U80C | 0.53
A13U A15G A35G A45G A47G | 0.61
A13U A15G A56G U60C U69C | 0.16
A13U A15G C40G A45G U67C | 0.04
A13U A15G G24A G30C U41A A45G | 0.09
A13U A15G U25C A56G U60C U67A U72A | 0.05
A13U A15G U41A | 0.26
A13U A15G U43C A56G | 0.25
A13U A15G U51C | 0.75
A13U A15G U60C | 0.24
A13U A15G U67C U80C | 0.29
A13U A15U A18U U25C | 0.26
A13U A15U A20G U72C U76A | 0.66
A13U A15U A28G C62U U72C | 0.15
A13U A15U A65G | 0.29
